Here are results for five substances from publication PMC3402478, “ADP Ribosylation by PARP-1 Suppresses HOXB7 Transcriptional Activity”.

By UniProt entry, the sequences of proteins in these tests, tags left out. Where a name states a change or a piece, a line headed by the entry shows the natural chain unless it says otherwise. Chains listed by the source or under a name are the forms on record and can include a tag or linker. Residues count along the entry.
UniProt P09629: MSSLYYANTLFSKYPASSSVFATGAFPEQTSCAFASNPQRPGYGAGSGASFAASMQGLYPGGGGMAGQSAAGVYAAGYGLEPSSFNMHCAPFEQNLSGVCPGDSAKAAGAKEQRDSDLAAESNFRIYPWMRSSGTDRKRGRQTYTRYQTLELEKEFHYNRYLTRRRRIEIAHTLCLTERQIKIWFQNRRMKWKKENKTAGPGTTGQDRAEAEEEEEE
FB7Δ1-14: residues 15-217 of P09629
FB7Δ38-79 (P09629, form named): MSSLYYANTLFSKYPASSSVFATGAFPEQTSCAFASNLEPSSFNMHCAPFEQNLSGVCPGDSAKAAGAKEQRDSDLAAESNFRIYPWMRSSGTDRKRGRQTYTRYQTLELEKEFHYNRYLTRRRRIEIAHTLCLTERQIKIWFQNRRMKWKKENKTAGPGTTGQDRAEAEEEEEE
FB7Δ81-120 (P09629, form named): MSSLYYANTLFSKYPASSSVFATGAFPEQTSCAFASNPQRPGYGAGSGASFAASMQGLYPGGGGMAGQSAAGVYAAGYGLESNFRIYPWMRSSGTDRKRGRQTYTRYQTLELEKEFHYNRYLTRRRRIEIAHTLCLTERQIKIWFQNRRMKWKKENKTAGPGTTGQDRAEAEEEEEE
UniProt P09630: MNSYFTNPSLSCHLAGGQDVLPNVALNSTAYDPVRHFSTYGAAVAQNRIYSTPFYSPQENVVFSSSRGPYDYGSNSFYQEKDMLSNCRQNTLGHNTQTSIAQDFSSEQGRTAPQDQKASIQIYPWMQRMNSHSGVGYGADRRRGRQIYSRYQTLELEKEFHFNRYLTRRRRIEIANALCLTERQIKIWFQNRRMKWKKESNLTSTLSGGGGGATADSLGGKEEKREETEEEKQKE
UniProt P17509: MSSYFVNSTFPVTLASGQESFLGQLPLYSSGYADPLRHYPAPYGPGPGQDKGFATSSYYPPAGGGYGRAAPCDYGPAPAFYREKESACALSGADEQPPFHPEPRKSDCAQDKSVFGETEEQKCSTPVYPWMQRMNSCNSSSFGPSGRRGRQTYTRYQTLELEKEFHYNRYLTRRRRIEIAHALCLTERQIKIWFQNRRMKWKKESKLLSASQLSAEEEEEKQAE
UniProt P31273: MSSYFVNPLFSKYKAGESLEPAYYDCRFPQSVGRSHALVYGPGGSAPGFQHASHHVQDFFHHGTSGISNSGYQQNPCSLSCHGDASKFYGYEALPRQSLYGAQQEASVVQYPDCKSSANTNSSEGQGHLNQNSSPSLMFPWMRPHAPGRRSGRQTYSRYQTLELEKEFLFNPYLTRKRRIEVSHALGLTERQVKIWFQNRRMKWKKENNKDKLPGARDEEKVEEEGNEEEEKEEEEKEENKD
UniProt P31268: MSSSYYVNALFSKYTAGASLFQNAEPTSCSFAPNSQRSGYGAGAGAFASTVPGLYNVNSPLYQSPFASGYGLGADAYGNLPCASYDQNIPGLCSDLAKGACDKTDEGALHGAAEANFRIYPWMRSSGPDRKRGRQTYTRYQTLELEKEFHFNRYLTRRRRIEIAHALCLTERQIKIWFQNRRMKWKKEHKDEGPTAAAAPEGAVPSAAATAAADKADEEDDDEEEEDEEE
UniProt P20719: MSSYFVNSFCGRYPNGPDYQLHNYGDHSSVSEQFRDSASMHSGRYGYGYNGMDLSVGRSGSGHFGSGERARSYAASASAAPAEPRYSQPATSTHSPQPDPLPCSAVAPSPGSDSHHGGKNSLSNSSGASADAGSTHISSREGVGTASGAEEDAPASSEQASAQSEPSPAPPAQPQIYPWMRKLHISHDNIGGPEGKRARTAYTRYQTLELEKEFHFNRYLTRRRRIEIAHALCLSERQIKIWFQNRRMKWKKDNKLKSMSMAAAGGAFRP
UniProt P09874: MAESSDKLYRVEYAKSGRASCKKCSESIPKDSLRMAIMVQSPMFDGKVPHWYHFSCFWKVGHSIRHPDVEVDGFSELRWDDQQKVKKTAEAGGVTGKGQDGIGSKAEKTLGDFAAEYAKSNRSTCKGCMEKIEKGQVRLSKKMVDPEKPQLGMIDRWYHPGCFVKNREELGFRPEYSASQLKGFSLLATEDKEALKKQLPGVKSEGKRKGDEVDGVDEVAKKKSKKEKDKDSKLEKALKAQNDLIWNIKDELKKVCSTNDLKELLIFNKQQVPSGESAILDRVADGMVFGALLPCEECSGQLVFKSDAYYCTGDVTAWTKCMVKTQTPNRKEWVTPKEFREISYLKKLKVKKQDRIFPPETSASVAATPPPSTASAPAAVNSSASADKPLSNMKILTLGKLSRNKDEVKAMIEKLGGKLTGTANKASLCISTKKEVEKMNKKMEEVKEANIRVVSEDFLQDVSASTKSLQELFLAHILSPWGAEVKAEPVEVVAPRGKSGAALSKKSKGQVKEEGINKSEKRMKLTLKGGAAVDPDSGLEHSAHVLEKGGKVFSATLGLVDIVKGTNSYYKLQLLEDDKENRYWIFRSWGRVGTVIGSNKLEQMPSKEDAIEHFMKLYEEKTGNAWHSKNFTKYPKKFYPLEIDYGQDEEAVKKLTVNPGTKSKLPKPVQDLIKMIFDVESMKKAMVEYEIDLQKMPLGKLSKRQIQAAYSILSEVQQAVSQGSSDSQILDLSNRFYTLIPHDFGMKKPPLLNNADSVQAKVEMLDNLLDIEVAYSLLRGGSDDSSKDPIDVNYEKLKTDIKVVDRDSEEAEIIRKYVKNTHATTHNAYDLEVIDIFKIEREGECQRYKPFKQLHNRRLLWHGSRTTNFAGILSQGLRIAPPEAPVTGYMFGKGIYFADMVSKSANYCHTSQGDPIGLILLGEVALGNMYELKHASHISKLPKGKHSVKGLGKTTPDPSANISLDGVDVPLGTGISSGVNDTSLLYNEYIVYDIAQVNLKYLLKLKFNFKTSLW

In one assay the target is GST-HOXB7 fusion protein (UniProt P09629). Put plainly: pull-down; GST-HOXB7 immobilized on glutathione-Sepharose, incubated with ^35S labelled PARP-1 or PARP-1 deletion proteins from in vitro TNT in NETN buffer at 4°C for 2 hours; autoradiography; only the target purified.
A further assay deals with FB7WM (W129F, M130I) (UniProt P09629). Put plainly: co-IP; Flag-tagged HOXB7 or its deletion/mutant constructs transiently transfected into CHO cells together with a PARP expression construct; immunoprecipitation with FLAG antibodies, immunoblot with PARP antibodies (the methods say HEK293T, myc-tagged PARP1, anti-myc blot). For orientation: Immunoblotting shows a protein as a band on a membrane.

For the next assay, the target named is FB7Δ38-79 (UniProt P09629). Described as above.
In the next assay the target is FB7Δ81-120 (UniProt P09629). The description is as above.
The target in a further assay is FB7Δ1-14 (UniProt P09629). Described as above.
Another assay deals with Flag-tagged HOXC6 (UniProt P09630). Briefly: co-IP; SKBR3 cells transfected with Flag-tagged HOX proteins; lysates immunoprecipitated with anti-Flag antibody, western blotted with anti-PARP-1 (endogenous PARP-1).
Another assay deals with Flag-tagged HOXB6 (UniProt P17509). The assay is described as above.
The target of another assay is Flag-tagged HOXC8 (UniProt P31273). Described as above.
In the next assay the target is Flag-tagged HOXA7 (UniProt P31268). Described as above.
For the next assay, the target named is Flag-tagged HOXA5 (UniProt P20719). The description is as above.

Results are given in words; binding and its absence hold for the method and conditions named. Binding seen in cells or lysates may run through a third protein. Some binding calls cover weakened binding; strength is not graded here.

With “PARP-1 C-terminal moiety (372-1014), in vitro transcribed and translated (from UniProt P09874 372-1014) (domain or fragment)”, the binding result with GST-HOXB7 fusion protein is reported as “no binding”.
“PARP-1 N-terminal cleavage domain (1-214), in vitro transcribed and translated (from UniProt P09874 1-214) (domain or fragment)”: the binding entry with GST-HOXB7 fusion protein is listed as “binds”.
Regarding “PARP-1 N-terminal part (1-372), in vitro transcribed and translated (from UniProt P09874 1-372) (domain or fragment)”, in the assay with GST-HOXB7 fusion protein, the binding entry was “binds”.
As to “PARP-1 from a PARP expression construct (PARPpCR3.1), in CHO cells (from UniProt P09874 1-1014) (enzyme)”, the binding entry in the assay with FB7WM (W129F, M130I) is given as “binds”; with FB7Δ38-79 it was “binds”; with FB7Δ81-120 it was “binds”; with FB7Δ1-14, “binds”.
Turning to “poly (ADP-ribose) polymerase-1 (PARP-1), endogenous in SKBR3 cells (from UniProt P09874 1-1014) (enzyme)”, the binding result in the assay with Flag-tagged HOXC6, in the assay with Flag-tagged HOXB6, with Flag-tagged HOXC8, with Flag-tagged HOXA7 and in the assay with Flag-tagged HOXA5 was “binds” each time.
